# Source: PubChem BioAssay AID485344 (National Center for Advancing Translational Sciences (NCATS), 2010)
# The campaign covered roughly 340,000 compounds. About 6,900 (2%) were called active. Cut-off read from the data, not from the text of the source: active = inhibition above about 30%; inactive = below that, where a call was filed. The entries are a selection whose mix differs from that of the whole data set. Entries without a call were filed so in the source.
# Molecular target: D(2) dopamine receptor (Homo sapiens) (UniProt P14416)
# Assay: HTS Assay for Allosteric Antagonists of the Human D2 Dopamine Receptor: Primary Screen for Antagonists; note: 0% is about no effect
# Details: HEK293 TREx D2 cells, calcium flux, dopamine EC80; at 10 µM; stronger effect = higher value
# How it was run: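 Tetracycline-induced HEK293 TREx cells expressing D2 receptor forced-coupled to calcium signalling, loaded with no-wash calcium dye. Compounds added and calcium flux read 180 s, then dopamine added at EC80 and read a further 180 s.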
# Chain of UniProt P14416 (P14416 whole entry, looked up): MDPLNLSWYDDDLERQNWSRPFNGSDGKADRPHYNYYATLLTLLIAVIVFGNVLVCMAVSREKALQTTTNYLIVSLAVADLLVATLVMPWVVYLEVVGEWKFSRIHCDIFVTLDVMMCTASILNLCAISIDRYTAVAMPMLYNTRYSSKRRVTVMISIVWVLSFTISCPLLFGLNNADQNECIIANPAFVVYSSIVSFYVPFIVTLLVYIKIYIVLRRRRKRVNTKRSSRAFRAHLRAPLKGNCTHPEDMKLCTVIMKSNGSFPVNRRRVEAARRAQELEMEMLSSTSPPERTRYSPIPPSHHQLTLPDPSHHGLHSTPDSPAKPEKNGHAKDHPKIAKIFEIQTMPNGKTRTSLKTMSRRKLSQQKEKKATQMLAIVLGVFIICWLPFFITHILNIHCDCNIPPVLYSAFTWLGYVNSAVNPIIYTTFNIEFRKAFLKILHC
row,Structure (SMILES),inhibition
1,COc1cccc(N2CCN(Cc3cc(=O)oc4cc(C)ccc34)CC2)c1,15.3%
2,CC(C)OCCCN1C(=O)c2[nH]nc(-c3ccccc3O)c2C1c1cccc(OCc2ccccc2)c1 (configuration not stated),18.4%
3,N#Cc1cccc(NC(=O)CCNS(=O)(=O)c2ccc3c(c2)CCN3C(=O)C2CC2)c1,-17.2%
4,COc1ccc(Cl)cc1NC(=O)Cn1cnc2sc(C)c(S(=O)(=O)N3CCN(c4ccccc4OC)CC3)c2c1=O,12.6%
5,O=C(CC1Nc2cccc3cccc(c23)NC1=O)Nc1ccc(F)cc1 (configuration not stated),5.46%
6,O=C(CCn1cnc2onc(-c3ccc(F)cc3)c2c1=O)N1CCN(c2ccccc2F)CC1,5.93%
7,C=C(C)c1cccc(C(C)(C)NC(=O)N2CCN(c3ccccn3)CC2)c1,active: 31.2%
8,CNS(=O)(=O)c1cn(CC(=O)N2CCN(c3ccccc3OC)CC2)cc1S(=O)(=O)NC,0.123%
9,Cc1ccc(C(=O)CC2(O)C(=O)N(Cc3ccccc3)c3ccccc32)c(C)c1 (configuration not stated),-0.147%
10,Cc1ccc2c(CC(=O)N(Cc3cccc(Cl)c3)C3CCS(=O)(=O)C3)coc2c1 (configuration not stated),-9.67%
11,CCOC(=O)C1CCCN(C(=O)c2ccc(NC(=O)c3nsc4ccccc34)cc2)C1 (configuration not stated),-0.764%
12,COC(=O)c1ccccc1NC(=O)Cn1c(=O)cc(C)c2c(C)nn(-c3cccc(Cl)c3C)c21,7.95%
13,CC(=O)c1ccc2c(c1)N(CCCN1CCC(CCO)CC1)c1ccccc1S2,active: 74.2%
14,Cc1cccc(C(=O)OCc2cc(=O)n3nc(-c4cccs4)sc3n2)c1,-5.14%
15,Cc1ccc(C)c(NC(=O)Cn2c(=O)n(Cc3ccc4c(c3)OCO4)c(=O)c3ccccc32)c1,-14%
16,CCCSc1nnc2n(-c3cccc(C)c3)c(=O)c3c4c(sc3n12)CCCC4,12%
17,Cc1ccc(-n2ncc(C(=O)NCCCN3CCN(C)CC3)c2C2CCN(C(=O)OC(C)(C)C)CC2)c(C)c1,-6.08%
18,CC(C)(C)OC(=O)N1CCC(c2c(C(=O)N3CCCCC3)cnn2-c2ccc(F)cc2F)CC1,4.99%
19,COc1ccc(OC)c(Nc2c3c(nc4ccccc24)CCC3)c1,4.87%
20,COc1cc(Cl)c(NC(=O)C(NS(=O)(=O)c2cccs2)C(C)C)c(OC)c1 (configuration not stated),1.94%
21,CCCN(Cc1cccs1)C(=O)Nc1ccc(F)c(Cl)c1,-5.53%
22,CCc1ccc(NC(=O)c2ccc(F)c(S(=O)(=O)NCCc3ccc(OC)c(OC)c3)c2)cc1,13.4%
23,CS(=O)(=O)N1CCc2cc(C(=O)Nc3ccc(S(N)(=O)=O)cc3)ccc21,-2.41%

row,Structure (SMILES),inhibition
1,Cc1ccc(C)c(CN2CCN(c3ncccn3)CC2)c1,active: 59.8%
2,COc1cccc(Nc2sc(C(=O)c3ccc(Cl)cc3)c(N)c2C(=O)NCCc2ccc(OC)c(OC)c2)c1,-13.5%
3,CCOc1ccc2c(c1)c(=O)c(C(=O)c1ccc(C)cc1)cn2Cc1ccccc1OC,21.8%
4,CCOc1ccccc1NC(=O)CN1C(=O)C2(SCC(=O)N2c2ccc(C)cc2)c2ccccc21 (configuration not stated),-3.79%
5,CC(C)c1ccc(NC(=O)Cn2c(=O)n(Cc3nc(-c4ccccc4)no3)c(=O)c3cc4c(cc32)OCO4)cc1,6.8%
6,CC(=O)c1cccc(NC(=O)N2CCC(CN3CCCCC3)CC2)c1,-14.4%
7,Cc1ccc(-n2ncc3c(=O)n(Cc4ccccc4C)cnc32)cc1C,4.64%
8,Cc1cc(C)c(CN2C(=O)c3ccccc3S(=O)(=O)c3ccc(C(=O)OCC4CCCO4)cc32)c(C)c1 (configuration not stated),4.59%
9,CCS(=O)(=O)c1ncc(Cl)c(C(=O)N(Cc2ccccc2)c2ccc(OC)cc2)n1,12.5%
10,O=C(Cc1ccc(Cl)cc1)Nc1ccc2nn(-c3ccccc3)nc2c1,7.38%
11,CC(C)CCNc1ncnc2c1cnn2-c1cccc(Cl)c1,9.82%
12,Cc1ccc(-n2c(SCC(=O)Nc3c(C)cccc3C)nc(O)c(C)c2=O)cc1,-7.58%
13,COCCNC(=O)C(=O)NCC(c1cccnc1)N1CCN(c2ccccc2)CC1 (configuration not stated),21.6%
14,CC(C)N(Cc1nc(-c2ccccc2)no1)C(=O)c1ccc2c(c1)OCO2,active: 31.4%
15,COc1ccc(-n2cc(-c3ccc4c(c3)OCO4)n(CC(=O)Nc3cccc(C)c3)c2=O)cc1,22.3%
16,O=C(CC1N=C2c3ccccc3N=C(SCC(=O)Nc3ccc(F)cc3)N2C1=O)NCc1ccc2c(c1)OCO2 (configuration not stated),11.8%
17,COc1cccc(-c2n[nH]c3c2C(c2ccccn2)N(C)C3=O)c1 (configuration not stated),-1.22%
18,COc1ccc(NC(=O)CCN2CCN(c3ccc(F)cc3)CC2)cc1,active: 76.8%
19,Cc1cccc(NC(=O)Cn2cc(S(=O)(=O)Cc3ccccc3Cl)c3ccccc32)c1,-5.16%
20,Cc1cc(C)n(C(C)CC(=O)Nc2ccc(C)c(F)c2)n1 (configuration not stated),13%
21,Cc1ccccc1Cn1c(SCc2ccc(C(=O)NCCc3ccccc3)cc2)nc2ccncc21,9.83%
22,CSc1ncc(Cl)c(C(=O)N(Cc2ccc(C(C)C)cc2)C2CCS(=O)(=O)C2)n1 (configuration not stated),-2.71%
23,CCn1c(=O)c2sccc2n2c(CCCC(=O)Nc3ccc(OC)c(OC)c3)nnc12,4.25%

row,Structure (SMILES),inhibition
1,O=C(c1ccc(Cn2c(=S)[nH]c3ccccc3c2=O)cc1)N1CCN(c2ccccn2)CC1,active: 32.8%
2,CC(Nc1oc(-c2ccc(COc3ccc(Cl)cc3)o2)nc1C#N)c1ccccc1 (configuration not stated),-6%
3,CCN(CC)CCCNC(=O)CN1C(=O)COc2ccc(S(=O)(=O)N3CCC(C)CC3)cc21,-1.41%
4,CCN(CC)c1ccc(NC(=O)CN2C(=O)c3cccnc3Oc3ccc(Cl)cc32)c(C)c1,8.72%
5,O=C(NCc1ccccc1)c1ccc2c(c1)nc1n2CCOC1,1.85%
6,CCOC(=O)Cn1c(=O)n(CC2CCCO2)c2nc(-c3c(F)cccc3Cl)nc(C(N)=O)c21 (configuration not stated),-1.27%
7,CCc1cccc(NS(=O)(=O)c2cc(-c3cnc(C)o3)ccc2OC)c1,12.5%
8,CCc1ccccc1NS(=O)(=O)c1cc(Br)cc2c1N(C(=O)C1CC1)CC2,3.15%
9,CCN(CC)c1cc2c(cc1F)c(=O)c(S(=O)(=O)c1ccccc1)cn2C,-12.1%
10,COC(=O)c1c(NC(=O)/C=C/c2ccc(OC)c(OC)c2)sc2c1CCC2,-2.98%
11,CCn1cc(S(=O)(=O)c2ccc(C)cc2C)c(=O)c2cc(F)c(N3CCCCC3)cc21,-0.279%
12,CCOc1ccc(NC(=O)CN2CCSc3ccc(S(=O)(=O)N4CCCC4)cc32)cc1,-2.58%
13,Cc1cc(C)cc(N(CC(=O)NCc2ccccc2Cl)S(=O)(=O)c2c(C)[nH]c(=O)[nH]c2=O)c1,-25.1%
14,Cc1noc(Cn2c(=O)c3ccccc3n(CC(=O)Nc3ccc(C(C)C)cc3)c2=O)n1,2.88%
15,CCCc1nn2c(=O)cc(COC(=O)c3ccco3)nc2s1,7.02%
16,O=C(CSc1ncc2c(n1)-c1ccc(Cl)cc1N(Cc1ccccc1)S2(=O)=O)Nc1ccccc1C(F)(F)F,3.18%
17,CCOC(=O)Cn1c(=O)n(CC2CCCO2)c2nc(-c3ccc(CC)cc3)nc(C(N)=O)c21 (configuration not stated),-16.5%
18,c1ccc(-c2cnc(SCCN3CCOCC3)n2CC2CCCO2)cc1 (configuration not stated),active: 33.8%
19,CC(=O)Nc1c(C)nn(-c2ccccc2)c1N1CCC(C(=O)Nc2cccc(C(F)(F)F)c2)CC1,-5.21%
20,CCC(=O)Nc1cc2nn(-c3ccc(C)cc3)nc2cc1C,9.14%
21,O=C(CCCN1CCC(O)(c2ccc(Br)cc2)CC1)c1ccc(F)cc1,active: 78.5%
22,Cc1ccc(NS(=O)(=O)c2c(C)nc3sc(C)cn3c2=O)c(C)c1,-13.3%
23,Cc1ccc(S(=O)(=O)c2nnn3c2nc(N2CCC(C(N)=O)CC2)c2cc(Cl)ccc23)cc1C,-2.76%

row,Structure (SMILES),inhibition
1,Cc1nc2c(c(C)nn2C(C)(C)C)c(C)c1CCC(=O)Nc1ccc(Br)cc1Br,-1.27%
2,CCOC(=O)CN1C(=O)C(=O)c2cc(C)ccc21,active: 37%
3,CCCN(CCC)C(=O)C1CCCN(c2ncnc3c2nc2n3CCCCC2)C1 (configuration not stated),-1.14%
4,Cc1ccccc1CNC(=O)c1ccc(CN2CC(=O)N3CCCCC3C2=O)cc1 (configuration not stated),17.3%
5,COc1cccc(CNC(=O)CCC(=O)N2CC(C)Sc3ccccc32)c1 (configuration not stated),9.45%
6,Cc1ccccc1CN1C(=O)c2ccccc2S(=O)c2ccc(C(=O)NCc3ccc4c(c3)OCO4)cc21 (configuration not stated),-5.52%
7,COc1ccc(CNC(=O)C(=O)Nc2cc(Cl)ccc2OC)cc1,9.69%
8,CC(=O)Nc1cc(C(=O)Nc2ccc3c(c2)N(C)C(=O)c2ccccc2S3)ccc1C,-9.2%
9,COc1ccc(N2CCN(S(=O)(=O)CCNC(=O)c3c(F)cccc3Cl)CC2)cc1,-21.8%
10,NC(N)=NCc1cccc(I)c1,active: 34.3%
11,Cc1ccc(C(=O)NCc2nnnn2-c2ccc(C)c(C)c2)cc1,-2.76%
12,Cc1ccc(-c2nnc(Nc3ccc(Br)cc3)c3ccccc23)cc1S(=O)(=O)NCc1nc2ccccc2[nH]1,10.3%
13,CCOc1ccc(NC(=O)C2CCCN(c3nnc(-n4c(C)ccc4C)s3)C2)cc1 (configuration not stated),-0.0938%
14,Cc1ccc(Cl)cc1NC(=O)c1cccc(NC(=O)N2CCSc3ncccc32)c1,3.78%
15,COCCN1C(=O)c2[nH]nc(-c3c(C)cc(C)cc3O)c2C1c1cccc(O)c1 (configuration not stated),-23.1%
16,COc1ccc(S(=O)(=O)N(CCc2ccccc2)CC(=O)NCc2ccccc2)cc1OC,-14.9%
17,CCc1ccc(NCc2cc3ccc(OC)cc3n(CC(=O)Nc3cccc(Cl)c3C)c2=O)cc1,5.86%
18,CC(=O)c1ccc(NC(=O)C2CCC(CNS(=O)(=O)c3cccc4nsnc34)CC2)cc1 (configuration not stated),2.03%
19,CCc1ccccc1N1C(=O)N(Cc2cccc(Cl)c2)c2ccccc2S1(=O)=O,-20.9%
20,CC(C)(C)OC(=O)N1CCC(c2c(C(=O)N3CCN(C(=O)c4ccco4)CC3)cnn2-c2ccc(Cl)cc2)CC1,3.46%
21,COc1ccccc1NS(=O)(=O)c1ccc(NC(=O)c2nc3nc(C)cc(C(F)F)n3n2)cc1,active: 38.6%
22,Cc1ccc(-n2c(CNc3ccc(F)cc3)nnc2SCC(=O)N2CCCC2)cc1,active: 30.1%
23,COc1cc(OC)c(NC(=O)NCc2ccc3c(c2)CCN3C(C)=O)cc1Cl,-20.2%
